# Data from PubChem BioAssay AID1347073 (National Center for Advancing Translational Sciences (NCATS), 2019).
# In all, about 45,000 compounds went through this assay and about 200 (0.44%) were called active. Not shown: some 7% with an inconclusive outcome. Calls come from the whole dose curve; as a rule, active = well fitted activation curve with a large enough effect; inconclusive = small, poorly fitted or top-dose-only effect; inactive = no such curve, though single readings can be large or run the other way. The list shows a part of the results.
# Test: qHTS of TDP-43 Inhibitors: NCGC Sytravon Library Screen; note: 0% is about no effect; nearly all actives have a fitted effect of over 55% in size
# Settings: yeast TDP-43 toxicity rescue, BacTiter-Glo growth, 24 h; series mostly up to 46.1 µM; growth rescue (activation): at the top concentration
# How it was run: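 TDP-43-expressing yeast, pregrown in raffinose, seeded at OD600 0.02 in galactose medium with compound for 24 hr at 30 deg C. Growth read by BacTiter-Glo luminescence, so rescue of toxicity appears as activation.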
row,SMILES,growth rescue (activation)
1,CCC(CC)NC(=O)CSc1nnc(-c2c[nH]c3ccccc23)o1,inactive: 0.706%
2,COc1ccccc1NC(=O)NC1(C(=O)N2CCCCC2)CCCCC1,inactive: -8.01%
3,O=C(O)c1ccc(S(=O)(=O)c2ccccc2C(=O)O)c([N+](=O)[O-])c1,inactive: -5.63%
4,COc1cc2nc(Cl)nc(N3CCCCC3)c2cc1OC,inactive: -18.2%
5,Cc1ccc(OCCOCCOc2ccc(Br)cc2/C=N\NC(=O)c2ccncc2)cc1,inactive: -6.23%
6,CC(NC(=O)C1CCN(S(=O)(=O)c2cc([N+](=O)[O-])ccc2Cl)CC1)c1ccccc1 (stereo not drawn),inactive: 1.43%
7,CCCc1cc(=O)[nH]c(Nc2ccc3c(c2)OCCO3)n1,inactive: 6.9%
8,O=C(NCc1cccnc1)c1ccc(COc2ccccc2Br)cc1,inactive: 18.4%
9,Cc1ccc(NC(=O)C2Cc3ccccc3O/C2=N\O)cc1C (stereo not drawn),inactive: 13.3%
10,COc1ccc(NC(=O)C(C)N2c3cccc4cccc(c34)S2(=O)=O)c(OC)c1 (stereo not drawn),inactive: -4.27%
11,O=C(c1ccccn1)N1CCN(c2cccc(C(F)(F)F)c2)CC1,inactive: 12.1%
12,CC(=O)c1ccc(-c2cnc3c(NC=O)cc(-c4cccc(NS(C)(=O)=O)c4)cn23)cc1,inactive: 9.63%
13,Cc1ccc(S(=O)(=O)Nc2c(C)[nH]c(=O)[nH]c2=O)cc1C,inactive: -1.41%
14,Cc1nc(C)c(-c2csc(Nc3ccc(O)cc3C)n2)s1,inactive: 4.48%
15,Fc1ccccc1N1CCN(C2CCCN(Cc3cccc(C(F)(F)F)c3)C2)CC1 (stereo not drawn),inactive: 4.94%
16,CCOc1ccccc1N1CC(C(=O)N(C)Cc2cccnc2)CC1=O (stereo not drawn),inactive: 4.65%
17,O=C(NCc1ccco1)c1ccc(COc2cc(Cl)ccc2Cl)cc1,inactive: 18.1%
18,CSc1ccc(CN(C)CC(=O)Nc2cccc(Br)c2)cc1,inactive: -2.53%
19,COc1cc(Cl)c(C)cc1NC(=O)CSc1nnc(CCC(=O)O)c(=O)[nH]1,inactive: -3.26%
20,Cc1ccc2nc(NC(=O)CSCC(=O)OCC(=O)c3ccc(Br)cc3)sc2c1,inactive: -14.8%
21,Cc1ccc(CCN2CC(C(=O)NC(C)C)CC2=O)cc1 (stereo not drawn),inactive: 7.8%
22,CCCCn1c(SCN2C(=O)c3ccccc3C2=O)nc2cc(S(N)(=O)=O)ccc21,inactive: -11%
23,Fc1cccc(-n2ncc3c2ncn2nc(COc4ccc(Cl)cc4)nc32)c1,inactive: 15.3%
24,CCC(=O)N1CCCC1(C)C(=O)Nc1ccc2scnc2c1 (stereo not drawn),inactive: -4.37%
25,CCN(CC)C(=O)CN(c1cccc(Br)c1)S(C)(=O)=O,inactive: -17.5%
26,CC1=N/C(=C\c2ccc3c(c2)OCO3)C(=O)N1c1ccc(C(=O)O)cc1,inactive: -0.24%
27,Cc1cc(S(=O)(=O)NCCN2CCOCC2)ccc1Cl,inactive: -0.848%

row,SMILES,growth rescue (activation)
1,CC(OC(=O)CCC(=O)c1cccs1)C(=O)Nc1ccccc1[N+](=O)[O-] (stereo not drawn),inactive: 2.88%
2,CC12c3ccccc3C(c3ccccc31)C1C(=O)N(Cc3cccnc3)C(=O)[C@H]12 (stereo partly drawn),inactive: -3.52%
3,CC(=O)c1cccc(NC(=O)c2ccc(S(=O)(=O)N3CCCC3)cc2)c1,inactive: 23.1%
4,Oc1nc(-c2ccc(Br)cc2)n2ccncc12,inactive: -6%
5,COc1cccc(S(=O)(=O)N2CCN(C(=O)c3ccco3)CC2)c1,inactive: 2.1%
6,Cc1nc2cc(-c3ccsc3-n3c(C)ccc3C)[nH]n2c(=O)c1Cl,inactive: 14.1%
7,COC(=O)C/C(O)=C(/N=Nc1cccc(C(F)(F)F)c1)C(=O)OC,inactive: -18.3%
8,CCCCC(=O)Nc1ccc(C(=O)NCCc2ccc(S(N)(=O)=O)cc2)cc1,inactive: 5.36%
9,O=C(NC(Cc1ccccc1)C(=O)O)/C(=C\c1ccc(F)cc1)NC(=O)c1ccco1 (stereo not drawn),inactive: 17.7%
10,COc1ccc(Cn2c(-c3ccc(Cl)cc3)c[n+]3ccccc23)cc1,inactive: 1.28%
11,O=[N+]([O-])c1cc(Cl)ccc1-c1nc(-c2ccccc2)no1,inactive: 25.2%
12,Cc1cc(NC(=O)Cn2nc(C(=O)O)c3ccccc3c2=O)c([N+](=O)[O-])cc1C,inactive: 9.44%
13,CCOc1cc(Br)c(CC(=O)NC2CCCCCC2)cc1OCC,inactive: 22.8%
14,Nc1c(C(=O)NCc2ccc3c(c2)OCO3)nnn1Cc1ccc(Br)cc1,inactive: 14.5%
15,CCOc1ccccc1NC(=O)CN(C)S(=O)(=O)c1ccc2nc(C)sc2c1,inactive: 21.4%
16,NC(=O)CSc1n[nH]c(=O)n1CCc1ccccc1,inactive: 3.58%
17,CCn1cc(Cl)c(C(=O)Nc2ccc(OC)c(OC)c2)n1,inactive: 11.3%
18,Cc1ccccc1Nc1nc(N)nc(COC(=O)c2ccc(O)cc2)n1,inactive: 7.68%
19,CC(=O)Nc1ccc(NC(=O)C(C)OC(=O)CC23CC4CC(CC(Br)(C4)C2)C3)cc1 (stereo not drawn),inactive: 6.21%
20,O=C(Cc1c(F)cccc1Cl)OCC(=O)N1CCc2ccccc21,inactive: 37.4%
21,Cc1c(Nc2cc(N3CCCC(C)C3)c3nonc3c2[N+](=O)[O-])c(=O)n(-c2ccccc2)n1C (stereo not drawn),inactive: 10.6%
22,O=C(Nc1sc2c(c1C(=O)NCc1ccco1)CCCC2)c1cc(=O)c2ccccc2o1,inactive: -1.29%
23,CCN(CC)C(=O)C1CCCN(C(=O)Nc2ccc3nsnc3c2)C1 (stereo not drawn),inactive: -6.35%
24,COC(=O)C1CCN(C(=O)COC(=O)c2cc(S(=O)(=O)N3CCOCC3)ccc2C)CC1,inactive: 20.9%
25,Cn1c(Cc2ccccc2)nnc1SCC(=O)NC1CCCC1,inactive: 12.6%
26,CCOc1ccc(NC(=O)C(Cc2ccccc2)N2C(=O)c3cccc4cccc(c34)C2=O)cc1 (stereo not drawn),inactive: 9.75%
